# Test results as given in PubChem BioAssay AID743279 (National Center for Advancing Translational Sciences (NCATS), 2014).
# Among all 360,000 compounds or so, about 17,000 (4.7%) were called active. Inconclusive results, whose numbers are uncertain, are shown with a selection of clear calls. Cut-off read from the data, not from the text of the source: active = activity change below about -50%; inconclusive = mostly about -30% to -49%; inactive = weaker than that.
# Experiment: qHTS for Inhibitors of Inflammasome Signaling: IL-1-beta AlphaLISA Primary Screen
# Conditions: THP-1 LPS/ATP IL-1B secretion, 16 h; at 57.5 µM, stronger effect = lower value
# How it was run: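 Secreted IL-1B measured by AlphaLISA bead assay after 16 h compound exposure of THP-1 cells; compounds (final up to 57.5 uM) added 1 h before LPS (250 ng/mL) and ATP (1.25 mM) stimulation; lower signal means less secretion.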
# % is set by controls: 0 for no effect and ±100 for the full control effect.
row,Compound,activity change
1,COc1ccc(C(CNC(=O)c2cc(S(=O)(=O)Nc3cccc(C)c3)ccc2C)N2CCOCC2)cc1 (stereo unspecified),inconclusive: -33.9%
2,O=C(Nc1ccc(NC(=O)c2ccco2)c(Cl)c1)c1ccccc1,inconclusive: -31.4%
3,O=C(Nc1ccc(Cl)cc1)N1CCCN(Cc2ccc(F)cc2)C1,inconclusive: -33.6%
4,C#CCOc1ccc(/C=C2/C(=O)ON=C2C)cc1Cl,inactive: -13.6%
5,CC(=O)OCCCN1c2ccccc2Nc2nnc(-c3ccccc3)cc21,inconclusive: -39%
6,CCC(C)Sc1nnc(CNC(=O)C23CC4CC(CC(C4)C2)C3)n1C1CCCCC1 (stereo unspecified),inconclusive: -44%
7,Cc1cccc(NS(=O)(=O)c2ccc(NC(=O)CN(c3cc([N+](=O)[O-])ccc3C)S(C)(=O)=O)cc2)c1,inconclusive: -47%
8,CCCn1c(SCC(=O)NCc2ccc(OC)cc2)n[nH]c1=O,inactive: 22.5%
9,CCOC(=O)COc1ccc2c(c1)C(=O)CC(C)(c1cccnc1)O2 (stereo unspecified),inconclusive: -33.5%
10,COc1cc(C(=S)N2CCCCC2)ccc1OCC(=O)Nc1ccccc1Cl,active: -70.3%
11,O=C(C1=C[C@@H](C2CC2)C[C@@H](OCCCCO)O1)N1CCN(Cc2ccccc2)CC1,inactive: -8.03%
12,S=C(NCc1ccc2c(c1)OCO2)NC1CCN(Cc2ccccc2)CC1,inconclusive: -39.2%
13,CCOC(=O)c1c(C)nc2sc(C(=O)Nc3ccc(C(C)=O)cc3)c(N)c2c1-c1ccc(OC)cc1,inconclusive: -46.7%
14,N=c1c2c(ncn1Cc1ccco1)Oc1cc(O)ccc1C2c1ccccc1 (stereo unspecified),active: -62.2%
15,CCOc1ccc(NCC(=O)c2ccc(C)cc2)cc1,active: -80.8%
16,CCOC(=O)C1=C(C)N(C[C@@H]2CC[C@@H](Cc3ccc(-c4ccccc4)cc3)O2)C(=O)NC1c1ccc(Cl)cc1 (stereo partly specified),active: -52.1%
17,CS(=O)(=O)N1CCc2cc(C(=O)Nc3ccccc3Cl)ccc21,inconclusive: -35%
18,Cn1nccc1C(=O)N1CCCC(C(=O)c2cccc3ccccc23)C1 (stereo unspecified),inactive: -14.4%
19,COc1ccc(-c2cc(C(F)(F)F)n3nc(C(=O)N4CCOCC4)nc3n2)cc1,inconclusive: -36%

row,Compound,activity change
1,Cc1cccc(NC(=O)c2sccc2-n2cccc2)c1C,inconclusive: -37.4%
2,COCCNC(=O)C(c1ccc(C)o1)N(C(=O)c1snc(C(N)=O)c1N)c1cc(C)cc(C)c1 (stereo unspecified),inconclusive: -46.9%
3,COc1ccccc1OCCNC(=O)C1CC(=O)N(Cc2ccccc2)C1 (stereo unspecified),inconclusive: -34%
4,Cc1ccc(C)c(NC(=S)NCCN(C2CCCCC2)C2CCCC2)c1,inconclusive: -45.2%
5,Cc1ccc(-c2ccc(=O)n(Cc3cc(C)ccc3C)n2)cc1,inconclusive: -42.3%
6,CC(/C=C1\SC(=S)N(CCC(=O)Nc2ccc(O)cc2)C1=O)=C\c1ccccc1,active: -53.1%
7,CCOc1ccc(NC(=O)c2ccc(N3CC4CC(C3)c3cccc(=O)n3C4)c(N)c2)cc1 (stereo unspecified),inactive: 67.4%
8,COc1cccc(NC(=O)N2CCC(n3nnc4ccccc43)CC2)c1,inactive: 19%
9,COC(=O)c1cc(S(=O)(=O)NCc2ccc(F)cc2)cn1C,inactive: 38.3%
10,COc1ccc(OC)c(NC(=O)c2cc(-c3cc(Cl)ccc3O)n[nH]2)c1,inconclusive: -41.4%
11,CC1CCN(c2nc3ccc(C(=O)N4CCN(Cc5ccccc5)CC4)cc3s2)CC1,inconclusive: -39.3%
12,Cc1cc(N2CCN(c3ccc([N+](=O)[O-])c4cccnc34)CC2)c2ccccc2n1,active: -94.4%
13,COc1ccc(C(=O)Nc2ccc(C(=O)N3CCCC3)cc2)cc1[N+](=O)[O-],inconclusive: -30.3%
14,COc1ccccc1C(=O)N(C)c1nnc(-c2ccccc2)s1,inconclusive: -36.7%
15,C/C(=N\NC(=O)C(c1ccccc1)c1ccccc1)c1ccccn1,active: -96.6%
16,Cc1onc(-c2ccccc2)c1C(=O)N/N=C/c1cc(Br)c(Br)o1,active: -93.1%
17,CC(C)(C)c1cc(CCC(=O)N2CCNCC2)c(C(C)(C)C)cc1O,inconclusive: -37.7%
18,O=S(=O)(NCCOC12CC3CC(CC(C3)C1)C2)c1cccc2nsnc12,inactive: -9.4%
19,COc1ccc(C(=O)ON=C2C=C(C)C(=O)C(C)=C2)cc1,inconclusive: -48.5%

row,Compound,activity change
1,O=C1C=C(NCc2ccco2)CC(c2ccc(Cl)cc2)C1 (stereo unspecified),inconclusive: -44.6%
2,COc1ccc(NS(=O)(=O)c2cc(C(=O)N3CCN(C/C=C/c4ccccc4)CC3)ccc2C)cc1,inconclusive: -38.7%
3,COc1ccc(C(=O)Nn2c(SCC(=O)c3ccc(Cl)cc3)nc3ccccc3c2=O)cc1,inconclusive: -43%
4,COc1ccc(Nc2cc(C)nc3nc(C)nn23)cc1Cl,inactive: -21.2%
5,Cc1ccsc1C(=O)NN=C1CCCCCC1,inconclusive: -40%
6,CC(C)(C)S(=O)(=O)N1C[C@H]2CC/C=C\C/C(c3ccccc3)=C\2[C@@H]1CCO,inactive: -8.19%
7,COCCNC(=O)/C(C#N)=C/c1ccccc1Br,inconclusive: -37.8%
8,COc1cc2c(cc1NC(=O)CSc1nnc(COc3ccc(Cl)cc3)n1C)oc1ccccc12,inconclusive: -37.5%
9,Cc1c(Cl)ccc2c(C(=O)NCCN3CCCCC3)cc(-c3ccccn3)nc12,active: -96.7%
10,Clc1cccc(-c2nc(NCCCN3CCOCC3)c3ccccc3n2)c1,inconclusive: -37.4%
11,CCOC(=O)c1cnc2cc(Cl)c(OC)cc2c1NCC1CCCO1 (stereo unspecified),inconclusive: -37.4%
12,O/N=C/c1ccnc(SCc2ccc(Cl)cc2)n1,inconclusive: -42.6%
13,COc1cccc(Oc2nc(-c3ccncc3)nc3ccccc23)c1,inconclusive: -34.7%
14,CC(C)(C)c1ccc(OCCC(=O)OCC(=O)NCc2ccccc2)cc1,inactive: 7.06%
15,O=C1OC(c2ccccc2)c2ccccc21 (stereo unspecified),inactive: -14.5%
16,CCCCn1c(O)c(N=NC(=O)c2ccncc2)c2cc(Br)ccc21,inactive: 16.2%
17,CC(=O)N1CCN(C(=O)c2cc(C)oc2C)CC1,inactive: 13.4%
18,COc1cc(/C=C(/C#N)c2nc3ccccc3[nH]2)ccc1OC(=O)c1ccco1,active: -62%
